B1: Hu-HSA-M-27-1 (Fc fusion)
chain: EVQLLESGGGLVQPGGSLRLSCAASGFTLDYYAIGWFRQAPGKEREGVSCIASSGGSTNYADSVKGRFTISRDNSKNTVYLQMNSLKPEDTAVYYCAAAVLECRTVVRGYDYWGQGTQVTVSS[sequence of human IgG1 Fc with changes omitted]
notes: Humanized from HSA-M-27
B2: Hu-HSA-59-1 (Fc fusion)
chain: EVQLLESGGGLVQPGGSLRLSCAASGFTLDYYAIGWFRQAPGKEREEVSCISSSGGSTNYADSVKGRFTISRDNSKNTVYLQMNSLKPEDTAVYYCAAALLECRVRSWPSDNWGQGTQVTVSS[sequence of human IgG1 Fc with changes omitted]
notes: Humanized from HSA-59
B3: Hu-HSA-PH-8-5 (Fc fusion)
chain: QVQLVESGGGLVQPGGSLRLSCSASGSIWGIYHMGWYRQAPGKQRELVASITVDGSTHYADTVKGRFTISRDNSKNTLYLQMNSLEPEDTAVYYCDIRNVGGDYWGQGTQVTVSS[sequence of human IgG1 Fc with changes omitted]
notes: Humanized from HSA-PH-8

The first assay has as its target T1, human serum albumin (human, UniProt P02768).
T1 construct: Bought reagent; also called HSA; HSA antigen
The assay can be described thus: BLI (ForteBio), VHH-Fc on AHQ sensor, pH 5.5. (In general: Biolayer interferometry detects binding as a change in optical thickness at a sensor tip.)
For orientation: Kd means the free concentration of one partner at which half of the binding sites on the other are occupied at equilibrium, for simple one-to-one binding. A word on the koff: it is the rate constant with which the complex falls apart. A low value points to a long-lived complex. As a reminder, the kon is a measure of how fast the partners come together. In turn, B1 gave a dissociation constant (Kd) of 29.9 nM, a koff of 0.00547 s⁻¹ and a kon of 183000 M⁻¹ s⁻¹.

As for B2, binding was put at a Kd of 44.4 nM, the koff stood at 0.00478 s⁻¹ and the on-rate constant (kon) was 108000 M⁻¹ s⁻¹.

Regarding B3, the dissociation constant (Kd) stood at 9.53 nM, the koff is 0.00166 s⁻¹ and the kon turned out to be 174000 M⁻¹ s⁻¹.

Another assay has as its target T1, human serum albumin. Kind of assay: BLI (ForteBio), VHH-Fc on AHQ sensor, pH 6.5.
On to B1, for which the Kd was found to be 14.3 nM, the koff turned out to be 0.00281 s⁻¹ and the association rate constant (kon) was 196000 M⁻¹ s⁻¹.

B2 returned a dissociation constant Kd of 91.5 nM, a koff of 0.00786 s⁻¹ and a kon of 86000 M⁻¹ s⁻¹.

Molecule B3 had a Kd of 14.4 nM, a koff of 0.002 s⁻¹ and an association rate constant (kon) of 139000 M⁻¹ s⁻¹.

The target in the next assay is T1, human serum albumin. Kind of assay: BLI (ForteBio), VHH-Fc on AHQ sensor, pH 7.4.
As for B1, the affinity, expressed as Kd, was 50.4 nM; the koff is 0.00836 s⁻¹; the kon worked out at 166000 M⁻¹ s⁻¹.

In the case of B2, the affinity, expressed as Kd, was 163 nM; the off-rate constant (koff) was 0.0113 s⁻¹; the kon stood at 69300 M⁻¹ s⁻¹.

The molecule B3 showed a Kd of 23 nM, a dissociation rate constant (koff) of 0.00303 s⁻¹ and a kon of 132000 M⁻¹ s⁻¹.

The target of the next assay is T2, mouse serum albumin (mouse, UniProt P07724 25-608).
T2 construct: Bought reagent; also called MSA
Kind of assay: BLI (ForteBio), VHH-Fc on AHQ sensor, 1:1 model.
For B1, the Kd worked out at 7.79 nM, the koff is 0.00393 s⁻¹ and the kon was found to be 505000 M⁻¹ s⁻¹.

The molecule B2 came in with a Kd of 10.4 nM, a koff of 0.00386 s⁻¹ and an association rate constant (kon) of 373000 M⁻¹ s⁻¹.

For B3, the Kd came to 29.5 nM, the koff came out at 0.00711 s⁻¹ and the kon stood at 241000 M⁻¹ s⁻¹.

The next assay concerns the target T3, cynomolgus serum albumin (cynomolgus).
T3 construct: Bought reagent; also called CSA
Kind of assay: BLI (ForteBio), VHH-Fc on AHQ sensor, 1:1 model.
Take B1: binding was put at a Kd of 40.4 nM, the dissociation rate constant (koff) was 0.0153 s⁻¹ and the kon was 378000 M⁻¹ s⁻¹.

Molecule B2 yielded a Kd of 66.2 nM, a koff of 0.0185 s⁻¹ and a kon of 280000 M⁻¹ s⁻¹.

As for B3, the affinity, expressed as Kd, was 12.5 nM; the koff worked out at 0.00373 s⁻¹; the kon stood at 298000 M⁻¹ s⁻¹.

A further assay addresses T1, human serum albumin. Kind of assay: BLI (ForteBio), VHH-Fc on AHQ sensor, 100 nM antigen, 1:1 model.
Molecule B1 had a Kd of 52 nM, a koff of 0.00715 s⁻¹ and a kon of 138000 M⁻¹ s⁻¹.

B2: the Kd amounted to 159 nM, the koff turned out to be 0.013 s⁻¹ and the kon worked out at 82200 M⁻¹ s⁻¹.

In turn, B3 registered a Kd of 52.8 nM, a koff of 0.00627 s⁻¹ and a kon of 119000 M⁻¹ s⁻¹.

For the origin of these results see patent publication US20250223340A1 (BIOTHEUS, published 2025).
